Among all 94,000 compounds or so, about 6,200 (6.6%) were called active. The inconclusive results got no clear call from the source; some entries with a clear call stand among them for comparison. Calls come from the whole dose curve; as a rule, active = well fitted inhibition curve with a large enough effect; inconclusive = small, poorly fitted or top-dose-only effect; inactive = flat fitted curve, though single readings scatter. Where the call is inconclusive, the potency comes from a doubtful curve fit.
Experiment: Cytotoxic Profiling in HEK 293 Cell Line of Diverse Libraries Using Quantitative High-Throughput Screening; note: nearly all actives have a fitted effect of over 60% in size
Conditions: HEK 293 viability, ATP luminescence (CellTiter-Glo), 48-72 h; activity change, negative = cytotoxicity: at 115 µM (top of the series) unless noted; series mostly up to 115 µM
Summary of the method: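 Pintool-delivered compounds were incubated with HEK 293 cells (250 cells/well) at 37 degree Celsius for 48 or 72 hr. ATP-dependent luminescence (CellTiter-Glo) then reported remaining viable cells.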
In the case of `CCN1Cc2cc(F)ccc2N(CC(O)COc2ccc(OC)cc2)CCC1=O` (stereo unspecified), the Potency is reported as inconclusive: 79.4 µM [inhibitor, partial curve, poor fit].
With `O=C1CCN(Cc2ccc(C(F)(F)F)cc2)CCCCCCN1` the Potency was inconclusive: 50.1 µM [inhibitor, partial curve, poor fit].
With `CC(=O)N(C)CCc1noc(C2CN(Cc3c(F)cccc3Cl)C2)n1` the Potency was active: 39.8 µM.
In the case of `O=C(CN1C(=O)COc2ccc(C(=O)COc3cccc(F)c3)cc21)NCc1ccco1`, the Potency is reported as inconclusive: 31.6 µM [inhibitor, partial curve].
For `CCOC(=O)c1ccc(NC(=O)Cn2c(C)cc3nc4n(c(=O)c32)CCCCC4)cc1`, the Potency was inconclusive: 50.1 µM [inhibitor, partial curve, poor fit].
For `COCc1noc(C2CCCCCN2C(=O)NCc2ccc(F)cc2)n1` (stereo unspecified), the “activity change, negative = cytotoxicity” value was inactive: -2.34%.
In the case of `O=C(c1ccc(F)cc1)N1CCN(C(=O)c2cccc(-c3ccccn3)c2)CC1`, the Potency is reported as inconclusive: 79.4 µM [inhibitor, single point].
For `O=C(NC1CCCN(c2cc(-c3ccc(Cl)cc3)[nH]n2)C1)c1ccc(Br)o1` (stereo unspecified), the Potency was active: 44.7 µM.
With `COc1ccccc1-c1ccc(CN2CCCCC2C(=O)N2CCCC2)cc1` (stereo unspecified) the Potency was inconclusive: 56.2 µM [inhibitor, partial curve, poor fit].
With `COc1ccc(-c2cccc(C(=O)N3CCC(NC(=O)c4ccc(C)cc4)CC3)c2)nn1` the Potency was inconclusive: 79.4 µM [inhibitor, partial curve, poor fit].
In the case of `CN(C)c1ccc(C(=O)N2CCCC(Cc3noc(-c4ccncc4)n3)C2)cc1` (stereo unspecified), the Potency is reported as inconclusive: 89.1 µM [inhibitor, single point].
In the case of `CC(C)(C)C1CCC2(CC1)NC(=O)N(CC(=O)NCCCc1ccccc1)C2=O` (stereo unspecified), the Potency is reported as inconclusive: 39.8 µM [inhibitor, full curve, poor fit].
In the case of `COc1ccccc1-c1cccc(C(=O)N2CCN(C(=O)Nc3ccccc3)CC2)c1`, the Potency is reported as inconclusive: 79.4 µM [inhibitor, partial curve].
With `COCCNc1ncc(-c2cccc(F)c2)c2c1OCC2` the Potency was inconclusive: 89.1 µM [inhibitor, partial curve].
In the case of `Cc1ncsc1CN1CCc2nc(N3CCN(C)CC3)sc2C1`, the Potency is reported as inconclusive: 31.6 µM [inhibitor, partial curve].
For `O=C(NCc1ccccn1)c1ccc2nnc(-c3cccc(C(F)(F)F)c3)n2c1`, the Potency was inconclusive: 79.4 µM [inhibitor, partial curve].
For `Cc1ccc(C(=O)N2CCCC(C(=O)N3CCC(c4ccccc4)CC3)C2)cc1` (stereo unspecified), the Potency was inconclusive: 50.1 µM [inhibitor, partial curve, poor fit].
For `CCOc1ccc(NC(=O)Cn2c(-c3ccc(F)cc3)nc(C)c(CCO)c2=O)cc1`, the Potency was inconclusive: 50.1 µM [inhibitor, partial curve, poor fit].
With `COCCNC(=O)c1cc(-c2cccc(F)c2)nc2c1cnn2C` the Potency was inconclusive: 126 µM [inhibitor, single point].
In the case of `Cc1cc(C(=O)N2C[C@@H](COCC3CC3)[C@H](c3ccncc3)C2)no1`, the “activity change, negative = cytotoxicity” value is reported as inactive: -5.34%.
For `Cc1ccc(C(=O)N2CCC(n3cc(-c4nc(C(C)C)no4)nn3)C2)cc1C` (stereo unspecified), the Potency was inconclusive: 28.2 µM [inhibitor, partial curve, poor fit].
For `Cc1cn2nc(C(=O)NCc3ccccc3F)cc2c(N(C)Cc2ccccc2)n1`, the Potency was inconclusive: 44.7 µM [inhibitor, partial curve, poor fit].
In the case of `Cc1nn2c(c1-c1ccnn1C(C)C)N(C(=O)COc1ccccc1C(N)=O)CCC2`, the “activity change, negative = cytotoxicity” value is reported as inactive: -0.193% [at 172 µM].
In the case of `O=C(NCc1ccccc1)N1CCCC(c2nc(CCOc3ccc(F)cc3)no2)C1` (stereo unspecified), the Potency is reported as inconclusive: 50.1 µM [inhibitor, partial curve, poor fit].
For `O=C1NCCCC[C@@H]1NCc1ccccc1OCCCCN1CCOCC1`, the “activity change, negative = cytotoxicity” value was inactive: -9.38%.
In the case of `CN(CCc1ccccn1)[C@@H]1[C@H](O)[C@H](CO)O[C@@H]1CN(Cc1ccc(F)cc1)Cc1ccc(F)cc1`, the Potency is reported as active: 35.5 µM.
With `CCN1c2cc(C(=O)NCc3ccc(OC)cc3)ccc2C(=O)N2CCCCC21` (stereo unspecified) the Potency was inconclusive: 79.4 µM [inhibitor, partial curve, poor fit].
For `Cc1noc2c(NCCN(C)C)cc(-c3ccc(F)cc3)nc12`, the Potency was inconclusive: 70.8 µM [inhibitor, partial curve, poor fit].
With `COc1cccc(C(=O)N2CCN(c3cc(-c4ccc(Cl)cc4)[nH]n3)CC2)c1OC` the Potency was inconclusive: 11.2 µM [inhibitor, full curve, poor fit].
In the case of `COc1ccc(-c2[nH]nc3ncc(-c4ccc(CO)cc4)nc23)cc1F`, the Potency is reported as active: 35.5 µM.
In the case of `Cc1cnc(CC2CCCN(S(=O)(=O)c3ccccc3)C2)n1CC1CC1` (stereo unspecified), the Potency is reported as inconclusive: 44.7 µM [inhibitor, partial curve, poor fit].
For `N#Cc1ccc(CN2CC3(C2)NC(=O)c2ccccc2O3)cc1`, the Potency was inconclusive: 70.8 µM [inhibitor, partial curve, poor fit].
With `O=C(c1csc(-c2cccs2)n1)N1CCC2(CCCO2)CC1` the Potency was inconclusive: 39.8 µM [inhibitor, partial curve, poor fit].
In the case of `CCNc1cc(N2CCC(CCC(=O)N3CCOCC3)CC2)ncn1`, the Potency is reported as inconclusive: 50.1 µM [inhibitor, partial curve, poor fit].
With `O=C(NC1CCCC1)N1CCCC(c2noc(COc3ccccc3)n2)C1` (stereo unspecified) the Potency was inconclusive: 79.4 µM [inhibitor, partial curve, poor fit].
With `Cc1ccc(Nc2ccnc(N3CCCC(C(=O)NC(C)C)C3)n2)cc1` (stereo unspecified) the Potency was inconclusive: 35.5 µM [inhibitor, partial curve, poor fit].
For `COc1ccc(-c2cc(N3CCN(C(=O)c4ccc(C)cc4)CC3)n[nH]2)cc1`, the Potency was inconclusive: 50.1 µM [inhibitor, partial curve, poor fit].
In the case of `CC(=O)Nc1ccc(CN(C)Cc2cccc(C(F)(F)F)c2)cc1`, the Potency is reported as inconclusive: 89.1 µM [inhibitor, single point].
In the case of `COc1ccc(Cn2c(=O)c(C(=O)N3CCN(C(=O)c4ccc(F)cc4)CC3)nc3cccnc32)cc1`, the “activity change, negative = cytotoxicity” value is reported as inactive: -23%.
In the case of `O=C(Nc1ccc(F)cc1)C1CCN(c2nc3ncccc3o2)CC1`, the “activity change, negative = cytotoxicity” value is reported as inactive: 2.7%.
In the case of `Cc1ccc(C)c(NC(=O)CN2C(=O)C(c3ccccc3)=NC23CCCC3)c1`, the Potency is reported as inconclusive: 39.8 µM [inhibitor, partial curve, poor fit].
For `O=C(Nc1cc(-c2ccccn2)nn1-c1ccccc1)c1cccc(Br)c1`, the Potency was inconclusive: 56.2 µM [inhibitor, partial curve, poor fit].
In the case of `Cc1cccc(CN2CCNc3cnc(OCc4cccnc4)cc3C2)c1`, the Potency is reported as active: 100 µM.
With `COC[C@H]1C[C@H]2C[C@H](OC(=O)Nc3cccc(Cl)c3)[C@@H](NC(=O)Nc3cccc(Cl)c3)[C@@]2(O)CO1` the Potency was inconclusive: 22.4 µM [inhibitor, single point].
In the case of `O=C(c1nnc(COc2ccc(F)cc2)n1-c1ccccc1)N1CCC[C@@H]1C(c1ccccc1)c1ccccc1`, the Potency is reported as inconclusive: 17.8 µM [inhibitor, full curve].
With `COc1ccc(NC(=O)C2(C)CCc3cnc(NCc4ccccc4)nc32)cn1` (stereo unspecified) the Potency was inconclusive: 112 µM [inhibitor, partial curve, poor fit].
In the case of `O=C(NC1CCCCCC1)C1CCCCN1Cc1ccc(-c2ccsc2)cc1` (stereo unspecified), the Potency is reported as inconclusive: 56.2 µM [inhibitor, partial curve, poor fit].
In the case of `COc1cc(NC(=S)N[C@H]2CO[C@H]3[C@@H]2OC[C@@H]3n2nnnc2-c2cccc(OC)c2)cc(OC)c1`, the Potency is reported as inconclusive: 44.7 µM [inhibitor, partial curve].
For `CCN(CC)C(=O)CCc1c(C)nn(-c2ccccc2C)c1Oc1ccccc1`, the Potency was inconclusive: 15.8 µM [inhibitor, partial curve, poor fit].
For `COc1ccc(NC(=O)c2ccc3nc(-c4ccncc4)oc3c2)cc1`, the Potency was inconclusive: 44.7 µM [inhibitor, partial curve].
With `COCCNc1ncc(-c2ccc(O)cc2)c2c1OCC2` the “activity change, negative = cytotoxicity” value was inactive: -26% [at 230 µM].
In the case of `C[S+](=O)([O-])NC1CCN(C(=O)c2ccc(-c3cccs3)cc2)CC1`, the Potency is reported as inconclusive: 56.2 µM [inhibitor, partial curve, poor fit].
With `O=C(c1cccnc1)N1CCC2(CC1)COc1ccccc1NC2=O` the “outcome” value was “inactive”.
For `COc1ccc(-c2ccc(C(=O)N3CCC(NC(=O)N4CCOCC4)CC3)cc2)nn1`, the “activity change, negative = cytotoxicity” value was inactive: 3.95%.
In the case of `O=C(Nc1ccc(C2(C(=O)NCc3ccc4c(c3)OCO4)CCCCC2)cc1)C1CC1`, the Potency is reported as inconclusive: 50.1 µM [inhibitor, partial curve, poor fit].
In the case of `Cc1ccc(Nc2ccnc(N3CCC(NC(=O)c4ccccc4)CC3)n2)cc1`, the Potency is reported as inconclusive: 44.7 µM [inhibitor, partial curve, poor fit].
In the case of `Cc1ccc(C)c(NC(=O)N2C[C@H](c3nc(-c4cccnc4)no3)[C@@H](C)C2)c1`, the Potency is reported as inconclusive: 39.8 µM [inhibitor, full curve, poor fit].
With `CCN1c2cc(C(=O)Nc3ccc(OC)cc3)ccc2C(=O)N2CCCCCC21` (stereo unspecified) the Potency was inconclusive: 44.7 µM [inhibitor, partial curve, poor fit].
With `COc1ccccc1CCC(=O)N1[C@@H]2CC[C@H]1CC(NC(=O)c1ccc(F)cc1)C2` (stereo partly specified) the “activity change, negative = cytotoxicity” value was inactive: -16.8%.
For `Cn1ncc2c(C(=O)NCc3cccc(Cl)c3)cc(-c3ccc(Cl)cc3Cl)nc21`, the “activity change, negative = cytotoxicity” value was inactive: -7.28%.
For `Cc1ccc(CN2CCCC3(Cc4ccccc4CNC3=O)C2)cc1` (stereo unspecified), the “activity change, negative = cytotoxicity” value was inactive: -21.1%.
% is set by controls: 0 for no effect and ±100 for the full control effect; potency is the fitted concentration of half-maximal effect; tags give direction and shape of the fitted curve.
